This passage reports binding signal results from paper PMC9911399, “Two distinct binding modes provide the RNA-binding protein RbFox with extraordinary sequence specificity”.

T1: RBFOX1 RRM (Homo sapiens, UniProt Q9NWB1 109-208)
T1 sequence: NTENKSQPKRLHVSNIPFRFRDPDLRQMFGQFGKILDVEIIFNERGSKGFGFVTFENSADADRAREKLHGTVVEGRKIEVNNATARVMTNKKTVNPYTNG

B1: AACGCUA (DNA:RNA)
RNA: GGGAGACCGGAAUUCAGAUUGUCCAACGCUAUUAAAUCCCGUCGUAGCCACCA
DNA 1: CAATCTGAATTCCGGTCTCCC
DNA 2: TGGTGGCTACGACGGGATT
B2: GAGAAAA (DNA:RNA)
RNA: B1 RNA with A25G, C27G, G28A, C29A, U30A
DNA 1: CAATCTGAATTCCGGTCTCCC
DNA 2: TGGTGGCTACGACGGGATT
B3: CGGAGAG (DNA:RNA)
RNA: GGGAGACCGGAAUUCAGAUUGUCCCGGAGAGUUAAAUCCCGUCGUAGCCACCA
DNA 1: CAATCTGAATTCCGGTCTCCC
DNA 2: TGGTGGCTACGACGGGATT
B4: UAUGCAC (DNA:RNA)
RNA: B1 RNA with A25U, C27U, U30A, A31C
DNA 1: CAATCTGAATTCCGGTCTCCC
DNA 2: TGGTGGCTACGACGGGATT
B5: AGACAUC (DNA:RNA)
RNA: B1 RNA with A26G, C27A, G28C, C29A, A31C
DNA 1: CAATCTGAATTCCGGTCTCCC
DNA 2: TGGTGGCTACGACGGGATT
B6: UCGGAAA (DNA:RNA)
RNA: B1 RNA with A25U, A26C, C27G, C29A, U30A
DNA 1: CAATCTGAATTCCGGTCTCCC
DNA 2: TGGTGGCTACGACGGGATT
B7: CGACCCG (DNA:RNA)
RNA: B3 RNA with G27A, A28C, G29C, A30C
DNA 1: CAATCTGAATTCCGGTCTCCC
DNA 2: TGGTGGCTACGACGGGATT
B8: CCGCUGC (DNA:RNA)
RNA: B3 RNA with G26C, A28C, G29U, A30G, G31C
DNA 1: CAATCTGAATTCCGGTCTCCC
DNA 2: TGGTGGCTACGACGGGATT
B9: CCGGACU (DNA:RNA)
RNA: B3 RNA with G26C, A28G, G29A, A30C, G31U
DNA 1: CAATCTGAATTCCGGTCTCCC
DNA 2: TGGTGGCTACGACGGGATT
B10: CUAUCAA (DNA:RNA)
RNA: B1 RNA with A25C, A26U, C27A, G28U, U30A
DNA 1: CAATCTGAATTCCGGTCTCCC
DNA 2: TGGTGGCTACGACGGGATT
B11: AGACGAU (DNA:RNA)
RNA: B3 RNA with C25A, G27A, A28C, G31U
DNA 1: CAATCTGAATTCCGGTCTCCC
DNA 2: TGGTGGCTACGACGGGATT
B12: CGACGUG (DNA:RNA)
RNA: B3 RNA with G27A, A28C, A30U
DNA 1: CAATCTGAATTCCGGTCTCCC
DNA 2: TGGTGGCTACGACGGGATT
B13: UCCGAGU (DNA:RNA)
RNA: B1 RNA with A25U, A26C, C29A, U30G, A31U
DNA 1: CAATCTGAATTCCGGTCTCCC
DNA 2: TGGTGGCTACGACGGGATT
B14: AGGAUAA (DNA:RNA)
RNA: B3 RNA with C25A, G29U, G31A
DNA 1: CAATCTGAATTCCGGTCTCCC
DNA 2: TGGTGGCTACGACGGGATT
B15: AGAACCC (DNA:RNA)
RNA: B1 RNA with A26G, C27A, G28A, U30C, A31C
DNA 1: CAATCTGAATTCCGGTCTCCC
DNA 2: TGGTGGCTACGACGGGATT
B16: GCCAAUA (DNA:RNA)
RNA: B1 RNA with A25G, A26C, G28A, C29A
DNA 1: CAATCTGAATTCCGGTCTCCC
DNA 2: TGGTGGCTACGACGGGATT
B17: UGACGGA (DNA:RNA)
RNA: B3 RNA with C25U, G27A, A28C, A30G, G31A
DNA 1: CAATCTGAATTCCGGTCTCCC
DNA 2: TGGTGGCTACGACGGGATT
B18: CUACCAU (DNA:RNA)
RNA: B3 RNA with G26U, G27A, A28C, G29C, G31U
DNA 1: CAATCTGAATTCCGGTCTCCC
DNA 2: TGGTGGCTACGACGGGATT
B19: AGCAAAU (DNA:RNA)
RNA: B3 RNA with C25A, G27C, G29A, G31U
DNA 1: CAATCTGAATTCCGGTCTCCC
DNA 2: TGGTGGCTACGACGGGATT
B20: UAUGCGA (DNA:RNA)
RNA: B1 RNA with A25U, C27U, U30G
DNA 1: CAATCTGAATTCCGGTCTCCC
DNA 2: TGGTGGCTACGACGGGATT
B21: CACCCAA (DNA:RNA)
RNA: B1 RNA with A25C, G28C, U30A
DNA 1: CAATCTGAATTCCGGTCTCCC
DNA 2: TGGTGGCTACGACGGGATT
B22: GAAACUG (DNA:RNA)
RNA: B1 RNA with A25G, C27A, G28A, A31G
DNA 1: CAATCTGAATTCCGGTCTCCC
DNA 2: TGGTGGCTACGACGGGATT
B23: UAAGAAC (DNA:RNA)
RNA: B1 RNA with A25U, C27A, C29A, U30A, A31C
DNA 1: CAATCTGAATTCCGGTCTCCC
DNA 2: TGGTGGCTACGACGGGATT
B24: UUUAAUG (DNA:RNA)
RNA: B3 RNA with C25U, G26U, G27U, G29A, A30U
DNA 1: CAATCTGAATTCCGGTCTCCC
DNA 2: TGGTGGCTACGACGGGATT
B25: CUCUGUC (DNA:RNA)
RNA: B1 RNA with A25C, A26U, G28U, C29G, A31C
DNA 1: CAATCTGAATTCCGGTCTCCC
DNA 2: TGGTGGCTACGACGGGATT
B26: UACAGGG (DNA:RNA)
RNA: B3 RNA with C25U, G26A, G27C, A30G
DNA 1: CAATCTGAATTCCGGTCTCCC
DNA 2: TGGTGGCTACGACGGGATT
B27: GCGUAUG (DNA:RNA)
RNA: B3 RNA with C25G, G26C, A28U, G29A, A30U
DNA 1: CAATCTGAATTCCGGTCTCCC
DNA 2: TGGTGGCTACGACGGGATT
B28: GACGACG (DNA:RNA)
RNA: B1 RNA with A25G, C29A, U30C, A31G
DNA 1: CAATCTGAATTCCGGTCTCCC
DNA 2: TGGTGGCTACGACGGGATT
B29: CUUAUGC (DNA:RNA)
RNA: B3 RNA with G26U, G27U, G29U, A30G, G31C
DNA 1: CAATCTGAATTCCGGTCTCCC
DNA 2: TGGTGGCTACGACGGGATT
B30: GCAUGCU (DNA:RNA)
RNA: B3 RNA with C25G, G26C, G27A, A28U, A30C, G31U
DNA 1: CAATCTGAATTCCGGTCTCCC
DNA 2: TGGTGGCTACGACGGGATT
B31: AUUAGUU (DNA:RNA)
RNA: B1 RNA with A26U, C27U, G28A, C29G, A31U
DNA 1: CAATCTGAATTCCGGTCTCCC
DNA 2: TGGTGGCTACGACGGGATT

Numbering of substitutions follows the chain as printed; changes in the protein carry UniProt numbers. The list shows a part of the results.

For the assay, the target named is T1, RBFOX1 RRM. The assay is described as follows: EMSA; HiTS-Eq, 1 nM pool, 10 min; buffer printed only for the single-RNA assays: 10 mM Tris pH 7.5, 150 mM NaCl, 3.4 mM EDTA, 0.001% NP-40, 30 C. To be noted: tags: His6 N-terminal (pET28a); label: 5' 32P. In a few lines: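 Relative association constants, normalised to the cognate motif, were derived by comparing read counts of each RNA species with those of the control reaction. The RNA sequenced was the free fraction, separated by 8% native PAGE after a 10 min equilibration in 50 µL of 1 nM 5′-radiolabelled RNA (7 randomized nucleotides) with increasing concentrations of purified wild-type or mutant RbFox RRM.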
A general note: In EMSA bound probe runs differently from free probe, usually more slowly.
For B1, the binding signal is 0.00499 KA relative to UGCAUGU.

Consider B2, for which the binding signal was 0.00503 KA relative to UGCAUGU.

B3: the binding signal is 0.0277 KA relative to UGCAUGU.

B4: the binding signal was 0.0143 KA relative to UGCAUGU.

For B5, the binding signal is 0.00453 KA relative to UGCAUGU.

As for B6, the binding signal was 0.00663 KA relative to UGCAUGU.

For the molecule B7, the binding signal was 0.00524 KA relative to UGCAUGU.

Take B8: the binding signal was 0.0127 KA relative to UGCAUGU.

Take B9: the binding signal was 0.0067 KA relative to UGCAUGU.

Take B10: the binding signal was 0.00339 KA relative to UGCAUGU.

As for B11, the binding signal is 0.00914 KA relative to UGCAUGU.

B12: the binding signal was 0.0175 KA relative to UGCAUGU.

Turning to B13, the binding signal was 0.00885 KA relative to UGCAUGU.

As for B14, the binding signal was 0.0109 KA relative to UGCAUGU.

Regarding B15, the binding signal is 0.00472 KA relative to UGCAUGU.

Take B16: the binding signal is 0.00209 KA relative to UGCAUGU.

Regarding B17, the binding signal is 0.00668 KA relative to UGCAUGU.

Regarding B18, the binding signal is 0.00128 KA relative to UGCAUGU.

Turning to B19, the binding signal is 0.00423 KA relative to UGCAUGU.

Consider B20, for which the binding signal was 0.0135 KA relative to UGCAUGU.

Regarding B21, the binding signal was 0.00202 KA relative to UGCAUGU.

Turning to B22, the binding signal is 0.0107 KA relative to UGCAUGU.

With B23, the binding signal is 0.0116 KA relative to UGCAUGU.

B24: the binding signal is 0.0116 KA relative to UGCAUGU.

As for B25, the binding signal was 0.00978 KA relative to UGCAUGU.

In the case of B26, the binding signal was 0.00573 KA relative to UGCAUGU.

In the case of B27, the binding signal is 0.0166 KA relative to UGCAUGU.

In the case of B28, the binding signal is 0.0136 KA relative to UGCAUGU.

Take B29: the binding signal is 0.0123 KA relative to UGCAUGU.

As to B30, the binding signal was 0.779 KA relative to UGCAUGU.

Turning to B31, the binding signal is 0.00711 KA relative to UGCAUGU.
